Assay results taken from PubChem BioAssay AID1347165 (National Center for Advancing Translational Sciences (NCATS), 2019).
In all, about 220,000 compounds went through this assay and about 5,700 (2.6%) were called active. The inconclusive results got no clear call from the source; some entries with a clear call stand among them for comparison. Calls come from the whole dose curve; as a rule, active = well fitted inhibition curve with a large enough effect; inconclusive = small, poorly fitted or top-dose-only effect; inactive = no such curve, though single readings can be large or run the other way. Potencies beside an inconclusive call are fits to weak or partial responses and may not hold up.

The compounds below were run against Lysine-specific demethylase 5B (Homo sapiens) (UniProt Q9UGL1) (assay: Primary screen for KDM5B Histone Demethylases FDH-coupled qHTS). Details: FDH-coupled NADH fluorescence (FDH is formaldehyde dehydrogenase); series mostly up to 57.7 µM.
Sequence of UniProt Q9UGL1 (Q9UGL1 whole entry, looked up): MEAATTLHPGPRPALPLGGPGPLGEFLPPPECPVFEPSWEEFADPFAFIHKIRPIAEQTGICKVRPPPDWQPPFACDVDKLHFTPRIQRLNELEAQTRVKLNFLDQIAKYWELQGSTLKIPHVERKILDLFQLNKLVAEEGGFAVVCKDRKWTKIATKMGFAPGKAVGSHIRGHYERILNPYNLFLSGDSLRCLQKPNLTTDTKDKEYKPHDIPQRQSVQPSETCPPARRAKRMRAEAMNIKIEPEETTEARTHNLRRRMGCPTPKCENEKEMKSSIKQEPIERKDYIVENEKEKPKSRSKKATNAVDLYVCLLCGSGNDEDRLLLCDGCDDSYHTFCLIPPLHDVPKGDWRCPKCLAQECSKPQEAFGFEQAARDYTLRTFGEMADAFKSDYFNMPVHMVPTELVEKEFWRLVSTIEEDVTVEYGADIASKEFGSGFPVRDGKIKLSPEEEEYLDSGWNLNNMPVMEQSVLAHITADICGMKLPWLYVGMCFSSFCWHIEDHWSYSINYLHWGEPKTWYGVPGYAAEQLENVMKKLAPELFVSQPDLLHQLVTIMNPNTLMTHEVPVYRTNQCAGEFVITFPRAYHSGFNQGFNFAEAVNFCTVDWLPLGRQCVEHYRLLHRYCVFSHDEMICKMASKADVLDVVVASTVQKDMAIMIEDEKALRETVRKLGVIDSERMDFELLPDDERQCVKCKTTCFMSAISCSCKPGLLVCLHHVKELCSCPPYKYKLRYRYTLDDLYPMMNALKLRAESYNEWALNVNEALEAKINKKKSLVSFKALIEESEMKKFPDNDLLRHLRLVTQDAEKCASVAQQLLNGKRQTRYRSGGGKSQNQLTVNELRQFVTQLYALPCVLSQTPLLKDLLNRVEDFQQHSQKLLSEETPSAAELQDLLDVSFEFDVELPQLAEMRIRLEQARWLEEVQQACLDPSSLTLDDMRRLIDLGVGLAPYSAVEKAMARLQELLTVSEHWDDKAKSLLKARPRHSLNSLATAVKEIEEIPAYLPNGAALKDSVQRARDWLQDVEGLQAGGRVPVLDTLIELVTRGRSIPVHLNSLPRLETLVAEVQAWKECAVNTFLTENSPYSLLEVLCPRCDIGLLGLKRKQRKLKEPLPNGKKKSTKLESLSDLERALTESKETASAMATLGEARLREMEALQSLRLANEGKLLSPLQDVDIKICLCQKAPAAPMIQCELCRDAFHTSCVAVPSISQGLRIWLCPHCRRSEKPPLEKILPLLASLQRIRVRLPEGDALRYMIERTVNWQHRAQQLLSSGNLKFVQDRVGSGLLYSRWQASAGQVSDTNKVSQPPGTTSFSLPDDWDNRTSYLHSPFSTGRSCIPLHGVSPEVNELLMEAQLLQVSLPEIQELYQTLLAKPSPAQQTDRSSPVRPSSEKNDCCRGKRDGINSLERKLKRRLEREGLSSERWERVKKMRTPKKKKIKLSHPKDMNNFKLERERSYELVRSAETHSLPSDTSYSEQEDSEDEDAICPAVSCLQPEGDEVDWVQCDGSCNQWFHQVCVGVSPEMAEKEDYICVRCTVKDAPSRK
Summary of the method: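 KDM5BΔAP (200 nM final) in 50 mM HEPES pH 7.5, 0.01% Tween-20 was preincubated 10 min at RT with compound over a concentration range. Substrate mix (H3K4me3 12.5 µM, α-KG 25 µM, Fe²⁺, ascorbate, NAD⁺, FDH) was added, and NADH fluorescence change over 30 min gave dose-response curves.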
Note: nearly all actives have a fitted effect of over 70% in size.
Potency is the fitted concentration of half-maximal effect; tags give direction and shape of the fitted curve.

Question: How did the Potency turn out when CCOc1ccc(CCNC(=O)c2ccc3c(c2)c(C)c(C)n3C)cc1 was run?
Answer: The Potency was inconclusive: 15.8 µM [inhibitor, partial curve, poor fit].

Question: How did the Potency turn out when CCC(C)(C(=O)NC1CCCCC1)N(Cc1cccs1)C(=O)c1ccc2c(c1)OCO2 (stereo not given) was run?
Answer: The Potency was “inactive”.

Question: How did the Potency turn out when COc1ccc(CCNC(=O)CSc2nc(-c3ccc4c(c3)OCO4)ccc2C#N)cc1OC was run?
Answer: The Potency was “inactive”.

Question: For COC(=O)c1ccc(NC(=O)CSc2nc(=O)n(Cc3ccco3)c3c2CCC3)cc1, which Potency is on record?
Answer: The Potency was inconclusive: 28.2 µM [inhibitor, single point].

Question: For CC(C)SCC(=O)N1CCCn2nc(C(=O)Nc3ccccc3)cc2C1, which Potency is on record?
Answer: The Potency was “inactive”.

Question: CSc1nc2sc3c(c2c(=O)n1-c1ccc(C)c(Cl)c1)CCN(C(C)=O)C3 was tested. Which Potency did it give?
Answer: Its Potency is inconclusive: 31.6 µM [inhibitor, partial curve, poor fit].

Question: With CCC(O)c1cc2n(n1)CCN(C(=O)c1nc(N)nc3c1CCCC3)C2 (stereo not given) as the compound, how does the Potency read?
Answer: The Potency was active: 28.2 µM.

Question: With COc1cccc(CC(=O)NCc2nnc3ccc(-c4ccc(C)c(C)c4)nn23)c1 as the compound, how does the Potency read?
Answer: Its Potency is inconclusive: 31.6 µM [inhibitor, partial curve, poor fit].

Question: Which Potency does the source give for CCn1nc(C(=O)OCCOc2ccccc2)c2ccccc2c1=O here?
Answer: Its Potency is “inactive”.

Question: Which Potency does the source give for CCOCC(=O)N1CCC(N2CC3CC(C2)[C@H]2CCCC(=O)N2C3)CC1 (stereo not given in full) here?
Answer: The Potency was inconclusive: 20 µM [inhibitor, single point].

Question: COCCNc1ncnc2c1CN(C1CCCC1)C(=O)CN2C was tested. Which Potency did it give?
Answer: The Potency was inconclusive: 89.1 µM [inhibitor, partial curve].

Question: How did the Potency turn out when COCC1CN(C2CCC2)CC12CCN(C(=O)C1CC1)CC2 (stereo not given) was run?
Answer: The Potency was inconclusive: 14.1 µM [inhibitor, single point].

Question: Cc1cc(-c2nnn(CC(=O)NC(N)=O)n2)ccc1F was tested. Which Potency did it give?
Answer: The Potency was “inactive”.

Question: Which Potency does the source give for CCC(C)(C)c1ccc(O)c(-c2csc(N)n2)c1 here?
Answer: The Potency was “inactive”.

Question: With CC1CCCCN1c1csc2ccc(F)cc2c1=O (stereo not given) as the compound, how does the Potency read?
Answer: Its Potency is inconclusive: 28.2 µM [inhibitor, partial curve, poor fit].

Question: For CC(C)NC(NC(=O)c1ccc(C(C)(C)C)cc1)C(Cl)(Cl)Cl (stereo not given), which Potency is on record?
Answer: Its Potency is “inactive”.

Question: Which Potency does the source give for COc1cc(Cl)ccc1C(=O)N1CCN(c2cc(C(F)(F)F)nc(C)n2)CC1 here?
Answer: Its Potency is inconclusive: 8.91 µM [inhibitor, single point].

Question: How did the Potency turn out when O=C(N[C@@H]1CN(Cc2ccoc2)C[C@H]1CO)c1cccnc1 was run?
Answer: Its Potency is inconclusive: 35.5 µM [inhibitor, partial curve, poor fit].

Question: For N#Cc1cccc(NC(=S)N[C@H]2CO[C@H]3[C@@H]2OC[C@@H]3n2nnnc2Oc2cccc(N3CCOCC3)c2)c1, which Potency is on record?
Answer: Its Potency is inconclusive: 20 µM [inhibitor, partial curve, poor fit].

Question: With O=C(Cc1c[nH]c2ccccc12)NCc1cn2ccccc2n1 as the compound, how does the Potency read?
Answer: Its Potency is “inactive”.

Question: CCNC(=O)C(C)NC(=O)C1CCC(C(C)(C)C)CC1 (stereo not given) was tested. Which Potency did it give?
Answer: The Potency was “inactive”.

Question: CCOC(=O)c1[nH]c(C)c(CCC(=O)NCc2ccc(N(C)C)cc2)c1C was tested. Which Potency did it give?
Answer: Its Potency is inconclusive: 25.1 µM [inhibitor, single point].

Question: O=C(CC1CCCCC1)NCc1nnc2cc(-c3nc(C4CC4)no3)ccn12 was tested. Which Potency did it give?
Answer: The Potency was active: 14.1 µM.

Question: With COc1cccc(/C=C/c2nc(C#N)c(NCCN(C)C)o2)c1 as the compound, how does the Potency read?
Answer: Its Potency is inconclusive: 2.24 µM [inhibitor, partial curve, poor fit].

Question: For CN1CCN(c2oc(-c3ccccc3F)nc2C#N)CC1, which Potency is on record?
Answer: Its Potency is inconclusive: 22.4 µM [inhibitor, partial curve, poor fit].

Question: How did the Potency turn out when O=C(c1cnc2ccccn2c1=O)N1CC(=O)N(C2CCCCC2)CC(OCc2ccccc2)C1 (stereo not given) was run?
Answer: The Potency was active: 31.6 µM.

Question: Which Potency does the source give for CC(C)NC(=O)C[C@@H]1C[C@H]2O[C@H](CNCc3cnccc3C(F)(F)F)[C@@H](O)[C@H]2O1 here?
Answer: Its Potency is “inactive”.

Question: O=c1ncn(Cc2ccccc2)c2ccc(-c3ccsc3)nc12 was tested. Which Potency did it give?
Answer: The Potency was active: 35.5 µM.

Question: How did the Potency turn out when COc1ccc(S(=O)(=O)NCCc2cc3ccc(C)c(C)c3[nH]c2=O)cc1 was run?
Answer: Its Potency is inconclusive: 5.01 µM [inhibitor, partial curve, poor fit].

Question: With CC(C)CCn1c(SCCCc2ccccc2)nc2c1c(=O)[nH]c(=O)n2C as the compound, how does the Potency read?
Answer: Its Potency is “inactive”.

Question: CCOC(=O)N1CCC(NC(=O)c2cc3c(OC)cccc3[nH]2)CC1 was tested. Which Potency did it give?
Answer: The Potency was inconclusive: 25.1 µM [inhibitor, partial curve, poor fit].

Question: Which Potency does the source give for C[N+]1(Cc2cccc(F)c2)CCN(/C=C/C(=O)C(F)(F)F)CC1 here?
Answer: The Potency was “inactive”.

Question: Which Potency does the source give for CC(Oc1ccccc1C(C)C)C(=O)N1CCN(c2ncccn2)CC1 (stereo not given) here?
Answer: Its Potency is “inactive”.

Question: COCCNC(=O)c1ccc(CC2CCN(C(=O)CCc3c(C)nn(C)c3C)CC2)cc1 was tested. Which Potency did it give?
Answer: Its Potency is “inactive”.

Question: With Cn1ccc2ccc(C(=O)Nc3nnc(C4CC4)s3)cc21 as the compound, how does the Potency read?
Answer: The Potency was inconclusive: 28.2 µM [inhibitor, partial curve, poor fit].

Question: COc1cc2c(cc1OC)C(C[C@H]1CN(C(=O)Nc3cccc(Cl)c3)CC[C@H]1CC(=O)O)=NCC2 was tested. Which Potency did it give?
Answer: Its Potency is active: 31.6 µM.

Question: For Cn1c(=O)c2c(-c3ccc(Cl)cc3)n(Cc3ccccc3)cc2n(C)c1=O, which Potency is on record?
Answer: The Potency was inconclusive: 2.24 µM [inhibitor, full curve, poor fit].

Question: CCOC(=O)c1cc2cc(Oc3ccccc3)ccc2n1C was tested. Which Potency did it give?
Answer: Its Potency is inconclusive: 22.4 µM [inhibitor, partial curve, poor fit].

Question: CCOc1nc2ccccc2nc1N1CCC(C(=O)Nc2ccc(C(C)=O)cc2)CC1 was tested. Which Potency did it give?
Answer: Its Potency is “inactive”.

Question: Which Potency does the source give for O=C(CCc1ncc(-c2ccccc2)o1)Nc1nccs1 here?
Answer: The Potency was “inactive”.

Question: For O=C(O)Cn1nnc(-c2ccc(OCc3cccc(C(F)(F)F)c3)cc2)n1, which Potency is on record?
Answer: Its Potency is inconclusive: 44.7 µM [inhibitor, single point].

Question: For CCOc1ccc([C@H]2C3=C(C[C@H](c4ccc(OC)c(OC)c4)CC3=O)Nc3[nH][nH]c(=O)c32)cc1, which Potency is on record?
Answer: The Potency was “inactive”.

Question: With O=C(Cn1ccn2nc(-c3ccc(F)cc3)c(CO)c2c1=O)Nc1ccccc1C(F)(F)F as the compound, how does the Potency read?
Answer: The Potency was inconclusive: 20 µM [inhibitor, partial curve, poor fit].

Question: Which Potency does the source give for O=C(NCCC12CC3CC(CC(C3)C1)C2)C12CC3CC(CC(C3)C1)C2 here?
Answer: The Potency was “inactive”.

Question: How did the Potency turn out when COc1ccc(Cl)cc1NS(=O)(=O)c1ccc2[nH]c3c(c2c1)CCCC3 was run?
Answer: The Potency was inconclusive: 25.1 µM [inhibitor, partial curve, poor fit].
